# Results reported in article PMC4336329 (PLoS ONE, 2015).
# Among all 310,000 compounds or so, about 2,200 (0.71%) showed an effect of 50% or more. Effects have a minus sign here. Some of the results follow.
# Molecular target: human ether-à-go-go-related gene (hERG) potassium channel (human, UniProt Q12809)
# Test: primary screen, population patch clamp on CHO cells stably expressing hERG
# Sequence of human ether-à-go-go-related gene (hERG) potassium channel (Q12809 whole entry, looked up): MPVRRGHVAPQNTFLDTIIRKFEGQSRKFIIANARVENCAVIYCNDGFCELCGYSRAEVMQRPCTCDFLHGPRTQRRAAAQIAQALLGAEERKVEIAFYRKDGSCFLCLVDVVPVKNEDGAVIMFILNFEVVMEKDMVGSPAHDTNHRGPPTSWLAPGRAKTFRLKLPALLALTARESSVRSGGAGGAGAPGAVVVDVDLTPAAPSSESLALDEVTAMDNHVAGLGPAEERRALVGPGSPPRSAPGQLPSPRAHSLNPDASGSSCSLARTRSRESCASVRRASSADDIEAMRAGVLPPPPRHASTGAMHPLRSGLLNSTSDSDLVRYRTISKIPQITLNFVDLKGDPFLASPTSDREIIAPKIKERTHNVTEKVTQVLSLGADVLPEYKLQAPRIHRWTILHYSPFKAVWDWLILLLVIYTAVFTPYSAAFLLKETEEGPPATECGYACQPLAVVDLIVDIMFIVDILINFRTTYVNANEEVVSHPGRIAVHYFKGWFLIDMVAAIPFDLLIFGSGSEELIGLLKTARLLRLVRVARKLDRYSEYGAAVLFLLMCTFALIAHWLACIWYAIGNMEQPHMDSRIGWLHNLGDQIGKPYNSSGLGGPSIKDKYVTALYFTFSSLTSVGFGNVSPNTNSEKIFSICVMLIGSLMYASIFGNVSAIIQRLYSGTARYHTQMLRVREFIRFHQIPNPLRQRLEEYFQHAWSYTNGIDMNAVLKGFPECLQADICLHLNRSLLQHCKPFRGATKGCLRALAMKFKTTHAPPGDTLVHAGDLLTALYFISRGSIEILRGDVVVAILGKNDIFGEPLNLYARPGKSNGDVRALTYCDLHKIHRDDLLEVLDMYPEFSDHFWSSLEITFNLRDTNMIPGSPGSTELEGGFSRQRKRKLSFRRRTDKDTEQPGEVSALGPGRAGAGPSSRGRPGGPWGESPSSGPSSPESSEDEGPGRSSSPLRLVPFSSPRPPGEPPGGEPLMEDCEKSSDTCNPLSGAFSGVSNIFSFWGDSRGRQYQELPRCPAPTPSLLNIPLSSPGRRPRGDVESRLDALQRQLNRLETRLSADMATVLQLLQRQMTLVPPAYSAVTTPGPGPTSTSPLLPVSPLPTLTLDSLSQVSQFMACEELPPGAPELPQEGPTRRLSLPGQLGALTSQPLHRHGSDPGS
row,Structure (SMILES),"hERG current change (%, negative = inhibition) at 1uM"
1,Cc1ccccc1NC(=O)C1Cc2ccccc2C(=O)O1 (centres unmarked),9.98%
2,CCCCCn1c(CN2CCN(C(=O)c3ccco3)CC2)nc2c1c(=O)n(C)c(=O)n2C,-37.1%
3,COc1cccc(CNC(=O)C2CCN(C(=O)N3CC(C)Oc4ccccc43)CC2)c1 (centres unmarked),10.2%
4,COC(=O)CC1c2ccccc2S(=O)(=O)N1Cc1ccccc1 (centres unmarked),6.7%
5,CC(=O)CSc1nnc(-c2ccc(S(=O)(=O)N3CCC(C)CC3)cc2)o1,5.36%
6,Cc1ccc(-c2nnn(CC(=O)N(c3cccc(O)c3)C(C(=O)NC(C)(C)C)c3cccs3)n2)o1 (centres unmarked),11.2%
7,NS(=O)(=O)c1ccc(N/N=C2/CCCc3ccccc32)c([N+](=O)[O-])c1,16.5%
8,CCOC(=O)Cn1c(=N)n(CCOc2ccc(F)cc2)c2ccccc21.Cl,-31.8%
9,CCCOc1ccc(Br)cc1/C=N/O,-3.89%
10,Cn1c(=O)c(C(=O)COc2ccc(F)cc2Cl)c(N)n(Cc2ccccc2)c1=O,15.8%
11,c1csc(CCNc2ncnc3sc4c(c23)CCC4)c1,11.8%
12,COc1ccc(/C=N/NC(=O)c2cccnc2)cc1COc1ccc(NC(C)=O)cc1,19.5%
13,COc1cccc(CNC(=O)CN(c2cc(C)cc(C)c2)S(=O)(=O)c2c(C)noc2C)c1,4.39%
14,Cc1cc(C(=O)Cn2nnc(-c3ccc(Cl)cc3)n2)c(C)n1-c1ccccc1,4.98%
15,Cc1ccc(S(=O)(=O)N(CC2CO2)c2cccc([N+](=O)[O-])c2)cc1 (centres unmarked),14.7%
16,COc1ccc(CCNCC(C)c2ccccc2)cc1.O=C(O)C(=O)O (centres unmarked),12.4%
17,CCNc1c(NS(=O)(=O)c2ccc(Br)s2)c(=O)oc2ccccc12,-4.7%
18,CC(=O)c1c(C)[nH]c(C(=O)CN2C(=O)NC(CCc3ccccc3)C2=O)c1C (centres unmarked),7.18%
19,O=[N+]([O-])c1ccc2c(c1)C(N1CCOCC1)/C(=C/COc1ccc3ccccc3c1Br)O2 (centres unmarked),16.5%
20,Cc1ccc(-n2c(SCC(=O)N3CCCCC3)nc(O)c(Cc3ccccc3)c2=O)cc1,14.2%
21,CCOC(=O)C1CCCN(C(=O)c2c(-c3ccccc3Cl)noc2C)C1 (centres unmarked),12.6%
22,COCc1nnc(NC(=O)c2cccc(NC(=O)c3ccccc3)c2)s1,-1.69%

row,Structure (SMILES),"hERG current change (%, negative = inhibition) at 1uM"
1,CCOC(=O)N/N=C1\CC(C)CC(C)(C)C1 (centres unmarked),22.4%
2,Cc1c[nH]c(=O)c([N+](=O)[O-])c1,10.8%
3,Cc1ccc(S(=O)(=O)N2CN(CC3CCCO3)c3nc4ccccc4nc32)cc1 (centres unmarked),14.2%
4,c1ccc(-c2noc(-c3cccnc3)n2)nc1,2.07%
5,COCCSc1nnc(NC(=O)c2ccc3c(c2)OCO3)s1,11.2%
6,Cc1ccc2[nH]c(C(=O)N3CCCCC3)cc2c1,11%
7,O=C(O)CC(Cc1ccccc1)(C(=O)O)c1ccccc1 (centres unmarked),6.84%
8,O=C(NCCCN1CCOCC1)c1ccc2c(c1)N(Cc1ccccc1)CCS2,0.208%
9,Cc1nn(-c2ccccc2)c(Cl)c1/C=N/Nc1nncc(=O)[nH]1,16%
10,CCOC(=O)c1c(NC(=O)CN2C(=O)NC(C)(c3ccc(Cl)cc3)C2=O)sc(C(=O)NC)c1C (centres unmarked),0.742%
11,Cc1cc(C)c(S(=O)(=O)Nc2nccs2)c(C)c1,8.76%
12,Cc1ccc(C)c(OCC(=O)Nn2c(C)nc3ccccc3c2=O)c1,11.8%
13,Cc1ccnc(NS(=O)(=O)c2ccc(NC(=O)Cc3ccc(Br)cc3)cc2)n1,18.4%
14,COc1cccc(CNC(=O)Cn2ccc3cc(S(=O)(=O)N4CCCC4)ccc32)c1,10.4%
15,CCOC(=O)CCCNc1ccc([N+](=O)[O-])cc1[N+](=O)[O-],-4.57%
16,O=C(N/N=C/c1ccco1)c1cccs1,7.92%
17,O=S(=O)(c1ccc2ccccc2c1)n1cnc2ccccc21,9.03%
18,CCOC(=O)c1c(C)[nH]c(C(=O)C(C)OC(=O)c2ccc(NC(=O)CC#N)cc2)c1C (centres unmarked),17.5%
19,COc1cc(/C=N/NC(=O)c2cccnc2)ccc1OS(=O)(=O)c1ccc(F)cc1,-11.3%
20,CCc1ccc2nc3c(c(C(=O)O)c2c1)CCC3,-8.29%
21,CC(C)CC(=O)Nc1ccc(C(=O)COc2ccc(-c3nnco3)cc2)cc1,11.9%
22,CCCCNC(=O)c1sc(=S)n2c1[nH]c(=O)c1ccccc12,12%
